Consider 72 sequences from publication PMC10726135.

Some of the results follow. At the low end of the ranking the order means little. The protein was read in a cell extract, so binding may be indirect.

The target in the assay is T1, HNF4alpha2 (COS-7 nuclear extract) (UniProt P41235).
T1 sequence: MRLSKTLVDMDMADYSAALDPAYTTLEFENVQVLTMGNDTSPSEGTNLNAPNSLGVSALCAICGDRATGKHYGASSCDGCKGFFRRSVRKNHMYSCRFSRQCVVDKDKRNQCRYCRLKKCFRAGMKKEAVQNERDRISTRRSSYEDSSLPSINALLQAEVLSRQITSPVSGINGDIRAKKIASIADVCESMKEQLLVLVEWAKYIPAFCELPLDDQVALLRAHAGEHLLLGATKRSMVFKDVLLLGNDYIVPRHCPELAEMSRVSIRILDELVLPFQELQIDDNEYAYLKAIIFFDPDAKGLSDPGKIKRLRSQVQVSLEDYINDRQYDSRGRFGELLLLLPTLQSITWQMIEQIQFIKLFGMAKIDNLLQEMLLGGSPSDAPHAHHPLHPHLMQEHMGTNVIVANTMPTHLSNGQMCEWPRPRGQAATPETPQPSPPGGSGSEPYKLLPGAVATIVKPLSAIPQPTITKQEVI
The assay can be described thus: protein-binding microarray. To be noted: COS-7 nuclear extract on double-stranded Agilent 4x180k PBM; binding buffer, salt, pH and temperature not given; high values mean tight binding; double strand, one strand shown; sequences stand for … in …GCCTAGGGAGATTAGAGTATCGGTCGA
As for ACCCAGGCATACTCAGTTATCAACCTTATC, the binding signal (log2 normalized intensity) is -0.84. As for TGTCTCTGGTCAGGGAGGGCTTTAGAATGT, the figure is 1.01; as for TTGCTACACTGCCAAAGTTCAACCATACAC, 1.42; as for ATCTACTTTTTGACCTTGCAGTGGCAAGGC, 1.73. As for AATACAGAGTCCAAATTCCTTGGTATGGCA, the figure is 2.08; as for AGGGGATTAGCATTTTTGTCTTTAACCCAA, 0.413. With TGCAGCAGGGGAATGGAGACACACCTGCGG, the binding signal (log2 normalized intensity) is -1.11. As for TTATGCAGACCTTTGCCCTTTGTTTACATA, the figure is 5.27.

For GATCAAGGCTCCCTGGCCACAGGAATGTGA, the binding signal (log2 normalized intensity) was -1.05. Consider GAGTCAACAGGCAGAAGAATGGATGAGCTA, for which the binding signal (log2 normalized intensity) is -1.04. As for TCATTGTACAAACACATACCTTAAATAAGA, the figure is -0.486; as for CAGGGGTTAGGGTGAAGTAAAGTTATACTT, 0.932; as for GATCAGAATCATAAAGCAGGGAGAGTTGCA, -1.05. As for GCACCCCGGGAGCGCCGAGCACGTCGAGCA, the figure is -1.07; as for CCTCCTCTCTGGGTCAAAGGTCATCGCACC, 7.54. As for TATGTCTCTCCTATTCAGGTATTTGCTCTG, the figure is 1.65. With ATGGCTCAGCCTGGCTGTGTAGACATCACC, the binding signal (log2 normalized intensity) was -1.09.

With TTCAGGACACCTTCAGGGCTGAGCCCACAG, the binding signal (log2 normalized intensity) was -1.19.

Turning to ATAAACCTGCCTACATCAAGAGGATTACAT, the binding signal (log2 normalized intensity) is -0.99. Then TGACGGACAAAGGGCTCTCTCACCAGAAAA, with -1.19; and TCTCTGTCCCAAGAGCAAGAAGGTCAGAGG, with 1.92.

On to TTCCAGTTTTGGAGAGGGGAACGATAAAAT, for which the binding signal (log2 normalized intensity) was -0.842. Then TATCCCAAGACATCAATTAACTTGTCCTTT, with 2.45; and CCTTTGCACCAGAGATAATATGCTTACTTA, with 0.0286; and TTCACAGAGCAAGGGTCCAGATTAGAGCAC, with 2.17.

As for ATGGCGACAAGAGTGACCTCTGGTCATTCA, the binding signal (log2 normalized intensity) is 3.83. With GTTCAATGCTTCAGTGAGCCTTGACCTTCA, the binding signal (log2 normalized intensity) amounted to 4.09.

For AGGCGGCGGCTCCGGGAGCTGGCGGCGCGG, the binding signal (log2 normalized intensity) is -1.25. As for AGCAGGGCTAGACTTTAACCCCCTTGTCTT, the figure is 4.76; as for ATAGGCGCGCGTGTGTGTGTGTGTGTGGTG, 3.32; as for GCAAGTCTCTTTTAGGCTGTCAGCCACCAA, -1.04. In the case of TGTTTTGAGGGTTAAAGGAGATAATGGGTG, the binding signal (log2 normalized intensity) was determined as 1.51. Then CTGCTGCCCAAAGGTCACCTCTTCAGATAG, with 2.94; and GCCCACACTGCCCATCCCCACTGAAAGTGT, with 3.06; and TTACTATAGGTTCTACTCTCCCCAGTTCAA, with 3.24.

CAGAGATAAGGTAGGCACGTAAATAAGGAT: the binding signal (log2 normalized intensity) was -1.06.

As to AGGGTCTTTGCAACTGTGTGTGGCCTGCAC, the binding signal (log2 normalized intensity) came out at 1.38.

With AATGCGCCTGGACAGATAAGAAGGGGTCAG, the binding signal (log2 normalized intensity) is 3.6. In the case of CCACTTTGTCCTTCACTTGTAGGAGACCTT, the binding signal (log2 normalized intensity) was determined as 2.19.

Regarding TATCATCAACATGCACTAGCAGTCCTATTT, the binding signal (log2 normalized intensity) is -0.0628.

As to ACCCCATTTTCCTAAAAATTATCTTTATCT, the binding signal (log2 normalized intensity) was -1.15. As to CAAGTTGCAGGGATGGACTTTAATCTCCAA, the binding signal (log2 normalized intensity) stood at 5.02. Then AAAGTGGTAGCCCACAATCAGTCTGATTGG, with -1.2; and GTGTTTAACCTTTGGGTGTGTTCAGCGAGG, with 2.07; and ACTAAAGTTCAGGAGGGAGGAGCATTTCAC, with -1.06. Then TAGGCTGGACTCTGACCCATTCCTTCTCAC, with 4.33; and CGGGCGCCCTGGTCTCTGCTACCTGTAGCT, with -1.04; and TTGTGATTTCCAAAAGGTACCACTGTTTGC, with 0.562. Take ACTGACCACAATTACTGAAGTTCCAGAGCC: the binding signal (log2 normalized intensity) was -0.744. As for AACGGGGACGCTTTAGAGAAACGCACTCGC, the figure is -0.933; as for CAACTCCACGCCCGCCGCCAGGTGGCCGAG, -1.07; as for TCAGAACTTCACTCAGTGGGGTGTCTGTGT, 2.09. Then AACAAGCAGCAAGGCCTGAATGAGCTCTGG, with -1.09.

As to CCAGCACTTCGACCTCACATTGTAGCTAAA, the binding signal (log2 normalized intensity) is -0.928. On to TGGTCAGCTCCTGGGAGATGAGCTCTGAAC, for which the binding signal (log2 normalized intensity) was 0.907. As for GGCAAGTGAGGGAGCCTAGATTAGATCAGA, the figure is -1.09; as for TAAGTTGGTTTACTTATGTCTCCAGAAACC, -0.431. Take GAGGGCTGCCAAAGCTCACAGATGTGGAAT: the binding signal (log2 normalized intensity) is -1.11.

Turning to CCCTCTCCTCCCTCGGCCGGCCCGGCAGCC, the binding signal (log2 normalized intensity) turned out to be 0.806. As for TGTTTATCTGCTGCCCTTCCCTCCACTATT, the figure is 2.96; as for TTGCATGAAGCACAAAGGTTACTTGCTCCT, 1.79.

With CAGCTTGGAATGTCAGGAACAACTTCGGGA, the binding signal (log2 normalized intensity) was -1.01.

Take TATGTACACTTGCCCTCTCACCAGAAGGGC: the binding signal (log2 normalized intensity) was 1.07.

Turning to AAGGAAATCTCTTTTGTTTTTCTTCAAGGA, the binding signal (log2 normalized intensity) came to 1.1. With TTATGGAGGAATTTGGACTTTTACTCTTAG, the binding signal (log2 normalized intensity) stood at 3.61. As for GATGGACCAAAGGTCTTGTACAAAGGTCCT, the figure is 3.11. As for AGCAGGTCAATAGGGCAGGGGGGAGATGAA, the figure is 0.231; as for CGCAATGCATAGCAGAAACATAGAAAGGAG, -1.15; as for ATGGCACCCTTTTGTCAGGAAGTTCCCACA, -0.433.

Consider GACCTCAGGGGTCATCAGATAGATGGTCAG, for which the binding signal (log2 normalized intensity) worked out at 2.53.

As to GGACAAAGTTCGTGGAAAGTGGAAGAATGG, the binding signal (log2 normalized intensity) came to 1.06. As for CTCACCCTAAGCCCTGCTCAGGGAATGTGG, the figure is -0.853.
